According to PMC12136788:
The other results are listed elsewhere or left out.

T1: UNK ZnF1-3 (human, UniProt Q9C0B0 31-174)
T1 sequence: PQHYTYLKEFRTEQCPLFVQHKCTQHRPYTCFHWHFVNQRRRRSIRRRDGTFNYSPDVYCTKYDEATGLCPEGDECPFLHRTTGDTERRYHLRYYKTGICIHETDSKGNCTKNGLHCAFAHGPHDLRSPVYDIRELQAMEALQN

B1: chr2:198351390:198351391:-_ENSG00000144381_ENST00000345042|hu_hu|hu_hu_hu_mus_False|8_18 (ssRNA)
RNA: GGGAGUUCUACAGUCCGACGAUCUCAUUCCCACCCUCCACAGAAAGGCUGCUUCUGAACUCUCAUGUGGUGACACAGCGCUACAGUCCUGAUGCUCACAGAACAGUAGAGAUGCCUCCUCAGUGAUUUAAGUUGAAAGGACACCAACAGAGGAUUGAGCAUCA
B2: chr2:9628331:9628332:+_ENSG00000134330_ENST00000482918|hu_mus|FALSE|FALSE (ssRNA)
RNA: GGGAGUUCUACAGUCCGACGAUCUUCCUCCACAUCCUUCCAGUAAGGAAGCAGCCACGGCAGAGAUGAGACCUUCUUGUCCAGCAGUGGACAGAGGUUUAAGAACAGAAACUCAUUUCCCAUUGGUGAUAAAUGCAGGCCAUCCAACAGAGGAUUGAGCAUCA
B3: chr11:124637793:124637794:-_ENSG00000120458_ENST00000374979|hu_mus|FALSE|FALSE (ssRNA)
RNA: GGGAGUUCUACAGUCCGACGAUCCUGUGAGCUGAUCUCAGCAUAAUGGUAACGAAUAUCCUCUUUCCAGCGGGUGUUAUAGCCAAUUCCAAAAAUGGCCAAUUUAUUGGAAAGAUGGAGCCUUGAGAAGUCUGUCCAACUCUGCAACAGAGGAUUGAGCAUCA
B4: chr2:179515052:179515053:+_ENSMUSG00000000305_ENSMUST00000000314|mus_hu|mus_mus_mus_hu_False|18_38 (ssRNA)
RNA: GGGAGUUCUACAGUCCGACGAUCGCUGUCCCAUGCAGUCACCGUGAACGCCACCUGCUCGGAGGGGACCUGCAGCUCCCGGGUGGCGAAGACUGUCCCAUCCGCCCCAACUUUGAAGUCCAAGCUGUUGGUCUCAUAUUGUGUCAACAGAGGAUUGAGCAUCA
B5: 31378140_31381174_497_CDS_ENSMUSG00000025609_ENSMUST00000026699|mouse|control|control (ssRNA)
RNA: GGGAGUUCUACAGUCCGACGAUCAAAGUUAAAGCUGGGCCCCCAGGACAAAAGUGGAACAAUUUUAAUGAAUCGACAAGGGAACAUCUGUUCAUCAAUUUUAUGUUUCAAGGUAAAUGUCUCUUUGUUAUAAUCAUUCUUCAGCAACAGAGGAUUGAGCAUCA
B6: chr18:9954606:9954607:+_ENSG00000101558_ENST00000400000|hu_hu|motif|central (ssRNA)
RNA: GGGAGUUCUACAGUCCGACGAUCACCAUUUCCCCAAGGAAUACCUCUUGGCAUUUCCUGAAUGAGUGGGAUUAGCAAUCGGAAUAAAUCAUAUUUCAAGAGGUAACAGCAACAGAUAAAAUUUAAAGGGAUUAUUAAAAUAACCAACAGAGGAUUGAGCAUCA
B7: chr4:52499564:52499565:+_ENSMUSG00000028312_ENSMUST00000117280|mus_mus|FALSE|FALSE (ssRNA)
RNA: GGGAGUUCUACAGUCCGACGAUCCAUUAUUAUAUAAACAACUUGGAUCCCAAAUUCUUGGAAGUUCAUGUGUAAAAACGUCAAGGUGAGAAGUCUGUACUCUGAACUGGCAUGCACUCAGUUGGGUUCUUUUCCUCUGGACUUCAACAGAGGAUUGAGCAUCA
B8: chrX:119742084:119742085:+_ENSG00000232119_ENST00000371317|hu_hu|motif|central (ssRNA)
RNA: GGGAGUUCUACAGUCCGACGAUCAAAAGGAUAUUUGUGAAGUAAUCUUAGGGUUGGAUAAAAAGGCCCUUCUCUUUGUCGGAAAAAGAGUAAUUCUCCAUUUACUGUAAGGAUUUCUAUAUGUUCAUGGCAUCGGACUAUUUUCAACAGAGGAUUGAGCAUCA
B9: chr7:149068622:149068623:-_ENSMUSG00000025139_ENSMUST00000001950|mus_hu|mus_mus_mus_hu_False|1_98 (ssRNA)
RNA: GGGAGUUCUACAGUCCGACGAUCGUGAGGCCUCUGAGUGAGGUUCCUGGUCUGUCCUGGGUUAGAGUUGUUAAUAUCACGGAACAUACCAUCUAGAACGUUCCAGUCCCGCCUGACACCUUCAUUCCCAAUGGAGAAUCUGCUCAACAGAGGAUUGAGCAUCA
B10: 116312975_116323887_1210_CDS_ENSMUSG00000029516_ENSMUST00000051704|mouse|control|control (ssRNA)
RNA: GGGAGUUCUACAGUCCGACGAUCAUCCCCUCCAGGCUGAUAUUCCAUGACCAGGUAAAGGUUAUUUUUGUCCUGAAAGGCGUACUGUAACUGGGGGAUCCAAGGACUCGUGCUCCGAGAUAAUAUGUUCCUCUCCUCCUCGAACAACAGAGGAUUGAGCAUCA
B11: 46233861_46236241_1503_CDS_ENSMUSG00000037697_ENSMUST00000051310|mouse|control|control (ssRNA)
RNA: GGGAGUUCUACAGUCCGACGAUCGUAGUACAUGAUGUCCAUCGCGCUGCUGUUGAGCAUGUCCCUCAGGCCUCGCACUUUGUCAGGAGUGAUGGAAUCAACUGUGUCUCCAUCAAGAGUAAGCUUUGAUCGCCAUUCAACAGGCAACAGAGGAUUGAGCAUCA
B12: chr17:34945718:34945719:+_ENSG00000005955_ENST00000304718|hu_hu|motif|central (ssRNA)
RNA: GGGAGUUCUACAGUCCGACGAUCAUUUAACCGGCAGUAUUUAUUAAAUUUCUCCUUCAGAUGCUGUCGGUAUUGUUCUCGGUUGCUGUAGAAAGACUGGUUAUUAGCCAUAAAUGACUGUAUUUCAUCUUGUGAGAUAAAGAUCAACAGAGGAUUGAGCAUCA
B13: chr2:224770714:224770715:-_ENSG00000085449_ENST00000233055|hu_hu|FALSE|FALSE (ssRNA)
RNA: GGGAGUUCUACAGUCCGACGAUCAUGAGCUGGGUAGGUCUUGAUAAAGUUCAUUUUAUUAAAAUCUUCAGAAACGUGAAAUUCCAUUACAGCUCCAUUAUCCUGGCCCACAAAUAUCCGUCUGCUGUCAUGAUGGUAAGCCAUCAACAGAGGAUUGAGCAUCA
B14: chr7:75932113:75932114:+_ENSG00000106211_ENST00000248553|hu_hu|hu_hu_hu_mus_False|18_48 (ssRNA)
RNA: GGGAGUUCUACAGUCCGACGAUCCUGCGACCACUCAUCGGGCAACCGGGGCACCCCGAAAGCUUGAUCGAAGAGGCGGCUGUGUGCGUACCAGUCGUCCCGGAAUGGUUCCCAGCUGCCCCGCAGGAGCAGCGAGAAGGGCACCAACAGAGGAUUGAGCAUCA
B15: chr6:83912051:83912052:+_ENSMUSG00000030016_ENSMUST00000032088|mus_hu|motif|central (ssRNA)
RNA: GGGAGUUCUACAGUCCGACGAUCUGCCUUUUUAUGAGAUGAUAAAAUCAAGAUAUCCUUUAAACCACCAAAUGGUUUUGCGGAGUCAUAAACUUCUUCUACAGAAUAUCCUUUAUUAGGCAAAUUAGAGACAAGCAUCACACACAACAGAGGAUUGAGCAUCA
B16: chr18:51681570:51681571:-_ENSG00000134046_ENST00000256429|hu_mus|motif|central (ssRNA)
RNA: GGGAGUUCUACAGUCCGACGAUCUAGAUAUAUACAUCAAAAAUACAUCUAAAAAGGCAUUGGUUAGUGCUAUUAAAAAGCGGUGUGCUCAGGUACACUUUUUCUUACAGGCGAAACCCAGUGGAAAUGUUUUAAUUCUGUUUCCAACAGAGGAUUGAGCAUCA
B17: chr7:108213676:108213677:+_ENSG00000128590_ENST00000249356|hu_mus|FALSE|FALSE (ssRNA)
RNA: GGGAGUUCUACAGUCCGACGAUCUCCAUGAAAUCUAUUUUCAGUCUGUACUGUGUGUCGAUUGGUGGUAUCAAAGCCACUAAAAGAAAACAUUUUCUCCAUGUCUUCAAACAUAUCAUCAAACAAUCCGCCUCCAAAAGAAAACAACAGAGGAUUGAGCAUCA
B18: chr1:63024871:63024872:-_ENSG00000116641_ENST00000251157|hu_mus|FALSE|FALSE (ssRNA)
RNA: GGGAGUUCUACAGUCCGACGAUCGUCCCCAAUUCGGACCGGGAACAUGUGUUCAUCCAGAGCAUUGACAAGAGCAAAGAAUUUGUCUAGAUAAGGGUCUUGUGUAUGAAUGGAUGAAACAGCAACAACUUCAACAUUAAAUACCAACAGAGGAUUGAGCAUCA
B19: chr22:32879901:32879902:+_ENSG00000100225_ENST00000397426|hu_mus|hu_hu_hu_mus_False|1_58 (ssRNA)
RNA: GGGAGUUCUACAGUCCGACGAUCCUCUUCCAUACUCAUGGCAUCCUGAAUUGACUCAGCUUCAACAUUUUGACUAGGCCCUAACAUACUGUCAUCAGUCCAGGCAUCAAAUGGGGUGGCCUGUCCUUGGGAUGAAUCACUUGGCAACAGAGGAUUGAGCAUCA
B20: chr7:75932113:75932114:+_ENSG00000106211_ENST00000248553|hu_hu|hu_hu_hu_mus_False|58_98 (ssRNA)
RNA: GGGAGUUCUACAGUCCGACGAUCCUGCGACCACUCAUCCGGCAGCCGGGGCACCCCGAAAGCUUGAUCGAAGAGGCGGCUAUGCGGAGGGUACCAGUCCCGGAAUGGUUCCCAGCUCGGGCUCCGCAGCAGCGAGAAGGGCACCAACAGAGGAUUGAGCAUCA
B21: 95069485_95072215_582_CDS_ENSMUSG00000015711_ENSMUST00000015855|mouse|control|control (ssRNA)
RNA: GGGAGUUCUACAGUCCGACGAUCAAGCUCAGAACGCUUUAUAUUUAAAACUGGUAUAAAGAUGUCUUCAGCUUCAGACGUCUUUGUUAGGUAGAAGGCCAAGGCGAGAGCAGACACCAUGGAGUCUAAGUCGCAGGCUUCAUUCAACAGAGGAUUGAGCAUCA
B22: chr4:115894766:115894767:+_ENSMUSG00000028698_ENSMUST00000030464|mus_hu|mus_mus_mus_hu_True|8_58 (ssRNA)
RNA: GGGAGUUCUACAGUCCGACGAUCUUCCACACGGAAAUGUACUUCGGGUUUUCCAACGGCCAGUACCAGUCCGGCCAACUACUAGGAACAGGGUCCUCCCCCUCUCUCCUACAGAACACAACAAAAUAACAAAAUACUUUCAAGCAACAGAGGAUUGAGCAUCA

What follows are binders tested against T1, UNK ZnF1-3 (assay: nsRBNS (natural sequence RNA bind-n-seq); RBNS binding buffer (assumed for nsRBNS): 25 mM Tris pH 7.5, 150 mM KCl, 3 mM MgCl2, 0.01% Triton X-100, 500 ug/ml BSA, 20 U/ml SUPERase-In, 4 C; UNK is unkempt and MSI1 is Musashi-1; names of the RNAs are library labels; protein concentration not given here; high values mean tight binding).
Work on B1 yielded a binding signal of 1.39 enrichment R. B2 gave a binding signal of 1.2 enrichment R. B3 was tested, and the binding signal was 0.702 enrichment R. Binder B4 has a binding signal of 0.751 enrichment R. In the case of B5, the binding signal is reported as 1.02 enrichment R. B6 showed a binding signal of 3.2 enrichment R. For B7, the binding signal was 0.725 enrichment R. For B8, the binding signal was 0.454 enrichment R. With B9 the binding signal was 0.783 enrichment R. B10 showed a binding signal of 0.906 enrichment R. With B11 the binding signal was 0.731 enrichment R. With B12 the binding signal was 0.479 enrichment R. Work on B13 yielded a binding signal of 1.02 enrichment R. B14 gave a binding signal of 0.546 enrichment R. B15 gave a binding signal of 0.953 enrichment R. For B16, the binding signal was 1.04 enrichment R. For B17, the binding signal was 0.756 enrichment R. B18 was tested, and the binding signal was 1.7 enrichment R. Work on B19 yielded a binding signal of 1.03 enrichment R. Work on B20 yielded a binding signal of 0.97 enrichment R. Work on B21 yielded a binding signal of 0.786 enrichment R. B22 gave a binding signal of 1.13 enrichment R.
